Assay results published in PubChem BioAssay AID485294 (National Center for Advancing Translational Sciences (NCATS), 2010).
Hit rate of the full screen: of about 370,000 compounds, about 150 (0.041%) were called active. This list was built around the results that the source calls inconclusive (neither active nor inactive); the mix of calls is not that of the screen. Calls come from the whole dose curve; as a rule, active = well fitted inhibition curve with a large enough effect; inconclusive = small, poorly fitted or top-dose-only effect; inactive = flat fitted curve, though single readings scatter. Potencies of inconclusive entries are left out as doubtful fits.

molecular target: Beta-lactamase (Escherichia coli (strain K12)) (UniProt P00811); assay: qHTS Inhibitors of AmpC Beta-Lactamase (assay with detergent); conditions: AmpC hydrolysis of nitrocefin, absorbance 480 nm, 0.01% Triton; activity change, negative = inhibition: at 114 µM (top of the series); note: nearly all actives have a fitted effect of over 25% in size;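 for activity change, negative = inhibition: 0% = no-compound wells and -100% = no-enzyme wells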
UniProt P00811, sequence (P00811 whole entry, looked up): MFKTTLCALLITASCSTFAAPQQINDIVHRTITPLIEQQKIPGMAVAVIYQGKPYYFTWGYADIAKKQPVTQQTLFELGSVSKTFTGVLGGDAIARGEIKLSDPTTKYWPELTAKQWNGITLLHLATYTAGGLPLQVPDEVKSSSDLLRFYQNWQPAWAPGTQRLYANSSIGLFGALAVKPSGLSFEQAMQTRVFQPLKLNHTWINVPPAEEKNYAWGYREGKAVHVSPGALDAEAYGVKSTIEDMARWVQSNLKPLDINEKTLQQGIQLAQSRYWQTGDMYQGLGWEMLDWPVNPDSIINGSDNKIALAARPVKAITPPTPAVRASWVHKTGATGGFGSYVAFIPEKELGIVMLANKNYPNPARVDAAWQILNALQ
How it was run: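 20 mM phosphate pH 7.0 + 0.01% (detergent screen) or 0.0001% Triton X-100; 5.3 nM AmpC reagent; cpd preinc 15 min RT; nitrocefin (800 uM stock) to start; A480 q20 s × 4 min; Activity was normalised to no-enzyme and no-compound control wells.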
Potency is the fitted concentration of half-maximal effect; tags give direction and shape of the fitted curve.

Question: Which Potency does the source give for COc1ccc(C(=O)NCC(=O)OCC(=O)N(C)c2ccccc2)cc1 here?
Answer: inconclusive [inhibitor, partial curve]

Question: With CC(C)c1ccccc1OCC(=O)NCC(c1cccs1)N1CCOCC1 (stereo not given) as the molecule, how does the Potency read?
Answer: inconclusive [inhibitor, single point]

Question: Which Potency does the source give for COc1ccc(C2(c3ccc(OC)cc3)NC(=O)N(CC(=O)Nc3ccc(C(N)=O)cc3)C2=O)cc1 here?
Answer: inconclusive [inhibitor, partial curve, poor fit]

Question: How did the Potency turn out when O=C(CSc1nnc(CSc2nc3ccccc3s2)o1)NC1CCCCC1 was run?
Answer: inconclusive [inhibitor, partial curve]

Question: CCN(CC)S(=O)(=O)c1cccc(C(=O)N/N=C/c2c(C)nn(-c3ccccc3)c2Cl)c1 was tested. Which Potency did it give?
Answer: inconclusive [inhibitor, full curve, poor fit]

Question: Cc1ccc(Cl)cc1NC(=O)N1CCc2cc(S(=O)(=O)N3CCC(C)CC3)ccc21 was tested. Which “activity change, negative = inhibition” value did it give?
Answer: inactive: 22.2%

Question: With CC(C)c1ccc(NC(=S)NCCc2c[nH]c3ccccc23)cc1 as the molecule, how does the Potency read?
Answer: inconclusive [inhibitor, full curve, poor fit]

Question: CC1=C(C(=O)N2CCCC(N3CCN(c4cccc(C(F)(F)F)c4)CC3)C2)OCCO1 (stereo not given) was tested. Which “activity change, negative = inhibition” value did it give?
Answer: inactive: -0.0145%

Question: For Cc1nc(-c2cnn(-c3ccccc3)c2)c2cc(C)oc2n1, which “activity change, negative = inhibition” value is on record?
Answer: inactive: 1.46%

Question: Which “activity change, negative = inhibition” value does the source give for O=C(CN1c2ccccc2Sc2ccccc21)N/N=C/c1ccc([N+](=O)[O-])cc1 here?
Answer: inactive: -7.31%

Question: For O=C(NNC(=O)c1cc2cc3ccccc3nc2s1)c1cccc(C(F)(F)F)c1, which Potency is on record?
Answer: inconclusive [inhibitor, full curve]

Question: COc1ccc(OC)c(NC(=O)C23CC4CC(C2)CC(n2cnc(Br)n2)(C4)C3)c1 was tested. Which Potency did it give?
Answer: inconclusive [inhibitor, full curve, poor fit]

Question: Which Potency does the source give for Cc1c(CCC(=O)NCCCn2ccnc2)c(=O)oc2cc3occ(C(C)(C)C)c3cc12 here?
Answer: inconclusive [inhibitor, partial curve]

Question: For Clc1cccc(Cl)c1CNCCCSc1ncccn1, which Potency is on record?
Answer: inconclusive [inhibitor, full curve, poor fit]

Question: How did the “activity change, negative = inhibition” value turn out when COc1ccc2sc(N(CCN(C)C)C(=O)/C=C/c3cccs3)nc2c1 was run?
Answer: inactive: 6.2%

Question: O=C(CCc1nnc2n(Cc3ccc(Cl)cc3)c(=O)c3ccccc3n12)N1CCN(c2ccccn2)CC1 was tested. Which “activity change, negative = inhibition” value did it give?
Answer: inactive: -7.46%

Question: Which Potency does the source give for Cc1cccc(NC(=O)c2c(C)nn(-c3ccccc3)c2Cl)c1 here?
Answer: inconclusive [inhibitor, single point]

Question: NC(=O)C1CCN(C(=O)c2ccc(CS(=O)(=O)c3c(Cl)cccc3Cl)o2)CC1 was tested. Which Potency did it give?
Answer: inconclusive [inhibitor, full curve, poor fit]

Question: How did the Potency turn out when Cn1nccc1C(=O)Nn1cnnc1 was run?
Answer: inconclusive [inhibitor, full curve]

Question: For C=CCn1c(=N)n(CC(O)COc2ccccc2OC)c2ccccc21 (stereo not given), which Potency is on record?
Answer: inconclusive [inhibitor, full curve, poor fit]

Question: How did the Potency turn out when OC1/C(=C/c2ccc(F)cc2)N2CCC1CC2 (stereo not given) was run?
Answer: inconclusive [inhibitor, partial curve]

Question: Cc1ccc(S(=O)(=O)N(C)CC(=O)OCC(=O)NCCN2C(=O)CSC2=O)cc1 was tested. Which “activity change, negative = inhibition” value did it give?
Answer: inactive: 1.39%

Question: For O=C1NCCN1Cc1ccc(F)cc1, which Potency is on record?
Answer: inconclusive [inhibitor, partial curve]

Question: With CCOCCCNc1ncnc2c1[nH]c1ccccc12 as the molecule, how does the “activity change, negative = inhibition” value read?
Answer: inactive: -1.25%

Question: O=C(CNCc1ccccn1)Nc1cc(C(F)(F)F)ccc1N1CCOCC1 was tested. Which “activity change, negative = inhibition” value did it give?
Answer: inactive: 6.6%

Question: Which “activity change, negative = inhibition” value does the source give for O=c1cc2oc3cc(O)c(O)cc3c(-c3ccccc3O)c-2cc1O here?
Answer: inactive: 1.09%

Question: With FC(F)(F)c1ccnc(NCc2ccc(Cl)cc2)n1 as the molecule, how does the “activity change, negative = inhibition” value read?
Answer: inactive: -21.1%

Question: CCn1ncc(C2=NOC(C(=O)Nc3cc(OC)c(Cl)cc3OC)C2)c1C (stereo not given) was tested. Which Potency did it give?
Answer: inconclusive [inhibitor, full curve, poor fit]

Question: For O=c1[nH]c(CS(=O)(=O)c2ccccc2)nc2ccccc12, which Potency is on record?
Answer: inconclusive [inhibitor, single point]

Question: CCN1CCC(CNCc2cn(-c3ccc(OC)cc3)nc2-c2ccccc2Cl)C1 (stereo not given) was tested. Which “activity change, negative = inhibition” value did it give?
Answer: inactive: -2.69%

Question: With CC(C)CC1COC(=O)N1 (stereo not given) as the molecule, how does the Potency read?
Answer: inconclusive [inhibitor, full curve, poor fit]

Question: How did the “activity change, negative = inhibition” value turn out when CN(C)c1ccc(/C=N/NC(=O)c2ccn(C)n2)cc1 was run?
Answer: inactive: 3.17%

Question: For Cc1ccccc1-c1nc2ccc(Cl)cc2c(=O)n1O, which Potency is on record?
Answer: inconclusive [inhibitor, partial curve, poor fit]

Question: With CCN(CC(=O)Nc1ccc2c(c1)OCCO2)C(=O)c1ccc(Cl)cc1Cl as the molecule, how does the Potency read?
Answer: inconclusive [inhibitor, full curve]

Question: For O=C(N/N=C/c1ccccn1)c1cc(-c2ccc3ccccc3c2)n[nH]1, which Potency is on record?
Answer: inconclusive [inhibitor, partial curve, poor fit]

Question: Which Potency does the source give for Cc1cccc(C)c1NC(=O)c1ccc(-n2cnnn2)cc1 here?
Answer: inconclusive [inhibitor, full curve, poor fit]

Question: For CCOC(=O)CCNCc1ccc(F)cc1, which “activity change, negative = inhibition” value is on record?
Answer: inactive: -7.26%

Question: Which Potency does the source give for CCCOc1cccc(C(=O)NC(=S)Nc2cccc(NC(=O)c3ccccc3Cl)c2)c1 here?
Answer: inconclusive [inhibitor, single point]

Question: With CC/C(=N\NC(=O)c1cc(C)nc2ccccc12)c1ccc(C)s1 as the molecule, how does the Potency read?
Answer: inconclusive [inhibitor, partial curve, poor fit]

Question: O=C(CN1CCOCC1)Nc1ccccc1-c1ccccc1 was tested. Which Potency did it give?
Answer: inconclusive [inhibitor, full curve, poor fit]

Question: Which Potency does the source give for CCc1ccc(S(=O)(=O)N2c3ccc(C)cc3C3CN(C)CCC32)cc1 (stereo not given) here?
Answer: inconclusive [inhibitor, partial curve]

Question: Which “activity change, negative = inhibition” value does the source give for Cc1cc([N+](=O)[O-])c2ccccc2[n+]1[O-] here?
Answer: inactive: 5.88%

Question: Which Potency does the source give for O=C(Nc1nc2ccccc2s1)c1cc(-c2ccccc2)nn1-c1ccccc1 here?
Answer: inconclusive [inhibitor, full curve]

Question: COc1ccccc1N1CCN(C(=O)c2cc(-c3ccc(Cl)cc3)on2)CC1 was tested. Which Potency did it give?
Answer: inconclusive [inhibitor, single point]

Question: For O=[N+]([O-])c1cc(-c2nc(-c3ccccc3)no2)ccc1NCCc1ccccc1, which “activity change, negative = inhibition” value is on record?
Answer: inactive: 13.6%
